Assay results: patent US20040023994A1 (priority 2002, published 2004)
Where two headings read alike, the source gives them in different places.

Tests used:
[1] = system: NCI-H322M
[2] = system: NCI-H322M; conditions: Non-Small Cell Lung, NCI database, cited from earlier work; for CC50: read-out: LC50 (the source's name)

Row | Structure (SMILES) | GI50 ([1]; Homo sapiens, 48 h) [µM] | CC50 ([1]; Homo sapiens, 48 h, read-out: LC50) [µM] | TGI ([1]; Non-Small Cell Lung, 48 h) [µM] | GI50 ([1]; Non-Small Cell Lung, 48 h) [µM] | CC50 ([1]; read-out: LC50, Non-Small Cell Lung, 48 h) [µM] | CC50 [2] [µM] | GI50 [2] [µM] | TGI [2] [µM]
1 | CC(=O)C=CSc1ncnc2nc[nH]c12 [cis-AVTP, 6-(2-acetylvinylthio) purine] | 2.49 | 68.8 | 15.6 |  |  |  |  | 
2 | CC(=O)C=CSc1nc(N)nc2nc[nH]c12 [trans-AVTG, 6-(2-acetylvinylthio) guanine] |  |  | 22.2 | 2.52 | > 100 |  |  | 
3 | Nc1nc2nc[nH]c2c(=S)[nH]1 [6-TG, 6-thioguanine] |  |  |  |  |  | > 100 | 7.33 | >100
4 | Sc1ncnc2nc[nH]c12 [6-MP, 6-mercaptopurine] |  |  |  |  |  | > 100 | 7.69 | >100
